# Whole data set: some 81,000 sequences, median “one-hybrid fitness for binding NBS DNA” near -0.1, cut for the highest 2% near 0.36. The list shows a part of the results.
# B1: Caulobacter ParB omega fusion; a variant is named by its letters at X, in order, B8GW30 (parent)
# chain: MESVVVGEPGMSEGRRGLGRGLSALLGEVDAAPAQAPGEQLGGSREAPIEILQRNPDQPRRTFREEDLEDLSNSIREKGVLQPILVRPSPDTAGEYQIVAGERAWRAAQRAGLKTVPIMVRELDDLAVLEIGIIENVQRADLNVLEEALSYKVLMEKFERTQENIAQTIGKSXSHVANXMRLLXLPDEVQSYLVSGELTAXHARAIAAAADPVALAKQIIEGGLSVRETEALARKAPNLSAGKSKGGRPPRVKDTDTQALESDLSSVLGLDVSIDHRGSTGTLTITYATLEQLDDLCNRLTRGI
# Variants of: B1
# Test: one-hybrid fitness for binding NBS DNA (the Noc-binding site; scaled: cognate 1, non-cognate 0); higher = stronger binding
# Details: with NBS DNA site
# Method in brief: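 Bacterial one-hybrid selection in E. coli USO rpoZ- hisB- pyrF- with a HIS3 reporter carrying the site 19 bp from the promoter, screening Caulobacter ParB libraries with four specificity codons randomised (NNS). Cells grew 48 hours at 37°C on M9-minus-histidine plus 0.1 mM IPTG and 5 mM 3-AT. Plasmids before and after selection were Illumina-sequenced, three replicate libraries pooled, and variants under 10 reads dropped. Fitness is the log change in variant-to-wild-type read ratio, rescaled to cognate 1, non-cognate 0.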
row,Variant,one-hybrid fitness for binding NBS DNA
1,CNPM,≤ 0.2
2,RQQT,0.441
3,GHFR,≤ 0.2
4,AMAG,≤ 0.2
5,IIFG,≤ 0.2
6,SQMT,≤ 0.2
7,TQNS,≤ 0.2
8,QHRK,0.362
9,RCMI,≤ 0.2
10,YARK,≤ 0.2
11,PLGQ,≤ 0.2
12,MTFS,≤ 0.2
13,LGEW,≤ 0.2
14,PCWR,≤ 0.2
15,PTEY,≤ 0.2
16,MRQS,≤ 0.2
17,WRYC,≤ 0.2
18,CQPS,≤ 0.2
19,HRAK,≤ 0.2
20,RRTP,≤ 0.2
21,PHDP,≤ 0.2
22,TKSA,≤ 0.2
23,SPCH,≤ 0.2
24,ALCC,≤ 0.2
25,QHDP,≤ 0.2

row,Variant,one-hybrid fitness for binding NBS DNA
1,NLNR,≤ 0.2
2,PSFI,≤ 0.2
3,PYCN,≤ 0.2
4,HGYM,≤ 0.2
5,GVCT,0.228
6,DSPT,≤ 0.2
7,QSNY,≤ 0.2
8,QCGI,≤ 0.2
9,LHYK,≤ 0.2
10,HTPV,≤ 0.2
11,RWHA,≤ 0.2
12,RKVA,≤ 0.2
13,PMGR,≤ 0.2
14,QSII,≤ 0.2
15,WEGG,≤ 0.2
16,DQRR,≤ 0.2
17,CGLR,≤ 0.2
18,KMNR,≤ 0.2
19,GVEM,≤ 0.2
20,WMTY,≤ 0.2
21,WDEV,≤ 0.2
22,SHVM,≤ 0.2
23,ANHG,≤ 0.2
24,YTCF,≤ 0.2
25,QSYT,0.347

row,Variant,one-hybrid fitness for binding NBS DNA
1,ALHS,≤ 0.2
2,TQNC,≤ 0.2
3,IYGV,≤ 0.2
4,IVWG,≤ 0.2
5,FPGC,≤ 0.2
6,WGWR,≤ 0.2
7,GFKS,≤ 0.2
8,RTVY,≤ 0.2
9,MPCT,≤ 0.2
10,DFSK,≤ 0.2
11,DCWR,≤ 0.2
12,QDDL,≤ 0.2
13,LVHF,≤ 0.2
14,CRSP,≤ 0.2
15,MLLI,≤ 0.2
16,SPLA,≤ 0.2
17,VASF,≤ 0.2
18,SNML,≤ 0.2
19,HMSG,≤ 0.2
20,KSAY,≤ 0.2
21,ILHD,≤ 0.2
22,FPFC,≤ 0.2
23,HGDK,≤ 0.2
24,IKWG,≤ 0.2
25,HEET,≤ 0.2

row,Variant,one-hybrid fitness for binding NBS DNA
1,IQVL,≤ 0.2
2,GRAA,≤ 0.2
3,RIQL,≤ 0.2
4,YENG,≤ 0.2
5,HNRI,≤ 0.2
6,KRQF,≤ 0.2
7,RIVC,≤ 0.2
8,DWYR,≤ 0.2
9,ALNH,≤ 0.2
10,KKES,≤ 0.2
11,YYEG,≤ 0.2
12,QYIT,0.355
13,AMNR,≤ 0.2
14,PGIE,≤ 0.2
15,WYTR,≤ 0.2
16,SLKR,≤ 0.2
17,TAQT,≤ 0.2
18,PVGV,≤ 0.2
19,FDLQ,≤ 0.2
20,KSDC,≤ 0.2
21,RAKE,≤ 0.2
22,ETIL,≤ 0.2
23,SLSN,≤ 0.2
24,CITA,≤ 0.2
25,YTMT,≤ 0.2

row,Variant,one-hybrid fitness for binding NBS DNA
1,IPRR,≤ 0.2
2,NSMV,≤ 0.2
3,GVRA,≤ 0.2
4,NAMV,≤ 0.2
5,LWCV,≤ 0.2
6,QFHP,≤ 0.2
7,WTLG,≤ 0.2
8,MLYC,≤ 0.2
9,SSHV,0.304
10,MGSL,≤ 0.2
11,LNYS,≤ 0.2
12,KPES,≤ 0.2
13,PSHM,≤ 0.2
14,PQER,≤ 0.2
15,HLWL,≤ 0.2
16,YWST,≤ 0.2
17,EMVR,≤ 0.2
18,LLML,≤ 0.2
19,GQPY,≤ 0.2
20,SITV,≤ 0.2
21,NTTA,≤ 0.2
22,GLDT,≤ 0.2
23,NQHS,≤ 0.2
24,HMLS,≤ 0.2
25,FLNV,≤ 0.2

row,Variant,one-hybrid fitness for binding NBS DNA
1,HSPC,≤ 0.2
2,HGTR,≤ 0.2
3,WVPF,≤ 0.2
4,ALKT,≤ 0.2
5,YHLG,≤ 0.2
6,PDRS,≤ 0.2
7,SMGL,≤ 0.2
8,HDHC,≤ 0.2
9,DNFR,≤ 0.2
10,SFAW,≤ 0.2
11,WCRC,≤ 0.2
12,DNAR,≤ 0.2
13,PRSL,≤ 0.2
14,RWVD,≤ 0.2
15,PITG,≤ 0.2
16,GGKT,≤ 0.2
17,WRRM,≤ 0.2
18,LHDI,≤ 0.2
19,QRIC,0.303
20,NILN,≤ 0.2
21,TNGS,≤ 0.2
22,AHYS,≤ 0.2
23,PAFW,≤ 0.2
24,ACLG,≤ 0.2
25,SPQI,≤ 0.2

row,Variant,one-hybrid fitness for binding NBS DNA
1,EPET,≤ 0.2
2,ATFW,≤ 0.2
3,NARA,≤ 0.2
4,ARVN,≤ 0.2
5,RCSS,0.522
6,HMNI,≤ 0.2
7,CMNF,≤ 0.2
8,MVRL,≤ 0.2
9,PLIC,≤ 0.2
10,QEHI,≤ 0.2
11,DREK,≤ 0.2
12,FTPM,≤ 0.2
13,PCWL,≤ 0.2
14,TRTY,≤ 0.2
15,AQHY,≤ 0.2
16,YGQV,≤ 0.2
17,HIQS,≤ 0.2
18,AILA,≤ 0.2
19,QVTG,≤ 0.2
20,STAI,≤ 0.2
21,CLCA,≤ 0.2
22,ADGL,≤ 0.2
23,QTSG,≤ 0.2
24,HNER,≤ 0.2
25,GMMS,≤ 0.2

row,Variant,one-hybrid fitness for binding NBS DNA
1,TSLV,≤ 0.2
2,FMIS,≤ 0.2
3,EQCE,≤ 0.2
4,RNRM,≤ 0.2
5,QVHT,0.373
6,TDQG,≤ 0.2
7,SGRD,≤ 0.2
8,AHDL,≤ 0.2
9,FHKP,≤ 0.2
10,RVHP,≤ 0.2
11,LTSQ,≤ 0.2
12,WMHA,≤ 0.2
13,DTVM,≤ 0.2
14,RPRA,≤ 0.2
15,LRSD,≤ 0.2
16,HGKA,≤ 0.2
17,LQYR,≤ 0.2
18,SHST,≤ 0.2
19,KVNL,≤ 0.2
20,QMAD,≤ 0.2

# From a collection of fitness landscapes (doi:10.1016/j.celrep.2020.107928)
